# In the supplement of paper PMC7826260:
# The other results are listed elsewhere or left out. Each Rep nickase domain was tested in vitro on the same pool of single strands (3 µM enzyme, 1 h, 37 °C); shown is the middle of each 90-letter strand. The score is log2 (uncut reads / reads without enzyme); strong cutting gives strongly negative numbers. There is no active / inactive call. Because reads are shares of a total, they shift together; values above 0 arise when much of the pool is cut.
# Assays:
# Assay in all cases: uncleaved DNA left, log2 of reads against the no-enzyme library (log2 ratio); higher = less cleavage (more negative = more Rep cleavage of the k-mer); sequences stand for … in CTCGTCCG…ACCGGAGA
# [1] = test system: T1, Rep nickase domain of Muscovy duck circovirus
# T1 sequence (residues 1-111, tag not shown): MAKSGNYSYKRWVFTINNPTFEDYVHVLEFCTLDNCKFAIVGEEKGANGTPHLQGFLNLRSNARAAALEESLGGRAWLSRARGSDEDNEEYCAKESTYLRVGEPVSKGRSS
# Experimental: (§1)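 A pool of 90-nt single-stranded DNAs with seven random bases just before the constant AC of the nick site (name = the seven bases) was cut by 3 µM recombinant His6-SUMO-tagged Rep nickase domain (300 nM DNA, 50 mM HEPES pH 8.0, 50 mM NaCl, 1 mM MnCl2, 1 h, 37 °C, three replicates). Uncut DNA was amplified and sequenced.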
# [2] = test system: T2, Rep nickase domain of banana bunchy top virus
# T2 sequence (residues 1-94, tag not shown): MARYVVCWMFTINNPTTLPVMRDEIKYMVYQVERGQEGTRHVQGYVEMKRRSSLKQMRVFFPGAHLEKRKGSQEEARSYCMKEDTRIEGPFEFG
# Experimental: as §1
# [3] = test system: T3, Rep nickase domain of cabbage leaf curl virus
# T3 sequence (residues 1-116, tag not shown): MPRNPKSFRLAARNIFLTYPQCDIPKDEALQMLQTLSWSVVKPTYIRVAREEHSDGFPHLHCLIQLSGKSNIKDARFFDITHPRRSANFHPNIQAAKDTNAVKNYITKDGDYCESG
# Experimental: as §1
# [4] = test system: T4, Rep nickase domain of chickpea chlorotic dwarf virus
# T4 sequence (residues 1-124, tag not shown): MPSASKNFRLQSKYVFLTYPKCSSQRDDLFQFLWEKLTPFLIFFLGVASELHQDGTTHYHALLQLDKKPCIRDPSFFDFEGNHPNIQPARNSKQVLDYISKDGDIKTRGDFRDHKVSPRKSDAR
# Experimental: as §1
# [5] = test system: T5, Rep nickase domain of faba bean necrotic yellows virus
# T5 sequence (residues 1-98, tag not shown): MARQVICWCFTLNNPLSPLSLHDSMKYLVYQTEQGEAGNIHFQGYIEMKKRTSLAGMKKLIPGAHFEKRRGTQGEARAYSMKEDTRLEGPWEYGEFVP
# Experimental: as §1
# [6] = test system: T6, Rep nickase domain of maize striate mosaic virus
# T6 sequence (residues 1-117, tag not shown): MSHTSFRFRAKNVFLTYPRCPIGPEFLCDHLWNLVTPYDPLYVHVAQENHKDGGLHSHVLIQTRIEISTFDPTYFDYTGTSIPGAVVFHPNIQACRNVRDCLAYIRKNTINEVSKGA
# Experimental: as §1
# [7] = test system: T7, Rep nickase domain of porcine circovirus 2
# T7 sequence (residues 2-116, tag not shown): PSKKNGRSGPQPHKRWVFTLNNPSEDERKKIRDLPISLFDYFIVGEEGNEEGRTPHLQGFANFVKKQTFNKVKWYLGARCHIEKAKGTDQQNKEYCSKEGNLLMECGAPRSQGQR
# Experimental: as §1
# [8] = test system: T8, Rep nickase domain of tomato golden mosaic virus
# T8 sequence (residues 1-124, tag not shown): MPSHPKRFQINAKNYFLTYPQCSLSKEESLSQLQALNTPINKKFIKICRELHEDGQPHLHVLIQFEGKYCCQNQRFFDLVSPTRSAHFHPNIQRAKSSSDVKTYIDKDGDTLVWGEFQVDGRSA
# Experimental: as §1
# [9] = test system: T9, Rep nickase domain of tomato yellow leaf curl virus
# T9 sequence (residues 1-136, tag not shown): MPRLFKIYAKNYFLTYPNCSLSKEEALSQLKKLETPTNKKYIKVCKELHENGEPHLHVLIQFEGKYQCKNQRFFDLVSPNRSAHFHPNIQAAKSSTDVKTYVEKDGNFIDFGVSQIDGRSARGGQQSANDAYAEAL
# Experimental: as §1
# [10] = test system: T10, Rep nickase domain of wheat dwarf virus
# T10 sequence (residues 1-137, tag not shown): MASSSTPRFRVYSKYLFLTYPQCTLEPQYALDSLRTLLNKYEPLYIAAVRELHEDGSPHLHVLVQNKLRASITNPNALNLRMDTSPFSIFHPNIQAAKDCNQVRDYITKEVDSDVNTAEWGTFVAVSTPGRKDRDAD
# Experimental: as §1
Sequence,uncleaved DNA left (log2) [1],uncleaved DNA left (log2) [2],uncleaved DNA left (log2) [3],uncleaved DNA left (log2) [4],uncleaved DNA left (log2) [5],uncleaved DNA left (log2) [6],uncleaved DNA left (log2) [7],uncleaved DNA left (log2) [8],uncleaved DNA left (log2) [9],uncleaved DNA left (log2) [10]
CTTGCGA,-0.0631,-0.00503,-0.681,-0.242,-0.00442,-0.614,0.0954,-0.157,0.0503,-0.0879
TATTAGA,-1.56,-0.0802,-0.0338,-0.736,-0.0272,-1.06,-0.309,0.11,0.00473,-0.0871
ATATCCG,-0.0757,-0.104,-0.797,0.0177,-0.0538,-1.07,0.123,-0.048,-0.163,-0.057
TTTTCAT,-0.181,0.108,0.247,-0.431,0.0691,-0.0536,-0.417,-0.0159,0.27,0.136
ATTCTAT,-0.0644,-0.2,-0.138,-0.982,-0.0163,-0.608,-0.586,0.0176,-0.00972,-0.0175
GATAATT,-0.034,-0.996,0.426,-1.76,-0.0546,1.23,-2.43,0.0368,0.236,0.213
CGGTGGC,0.119,0.00628,0.159,0.319,0.0522,0.0258,0.175,-0.137,-0.085,0.00724
TGTTTAA,-0.00481,-0.0105,0.184,0.279,-0.0681,0.836,0.073,-0.00286,-0.0278,-0.114
GAACGCA,0.00827,0.0609,0.0704,-0.229,0.0535,0.0558,0.0505,0.0674,-0.0506,0.124
TGTAATG,0.04,-0.0194,-0.323,-0.219,0.0659,-0.639,0.153,0.0792,0.0665,0.0151
ATAGCCT,0.0112,-0.0316,-0.212,-1.93,0.00543,-0.728,0.0185,-0.0781,0.0633,-0.057
ACTATCG,-0.0593,0.000732,-0.756,0.07,-0.0472,-0.792,0.0911,-0.122,-0.148,-0.12
TTCCATC,-0.0862,0.0692,0.257,-0.0124,-0.0273,-0.517,-0.096,-0.117,0.00163,0.0661
AAAAGGT,0.0931,-0.0132,0.144,0.909,-0.049,1.4,0.132,0.0807,-0.184,-0.0255
ACTCTGC,-0.0455,-0.11,-0.806,-0.585,0.0257,-1.23,0.123,-0.0868,-0.013,-0.323
